Assay results as given in publication PMC5892938.
Some of the results follow. The source does not settle which construct or isoform was used.

molecular target: GST-SBP-ILF3 (Homo sapiens) (UniProt Q12906); assay: targeted RNA Bind-n-Seq; settings: RBNS binding buffer: 25 mM Tris pH 7.5, 150 mM KCl, 3 mM MgCl2, 0.1% Tween, 0.5 mg/mL BSA, 1 mM DTT; 27 nM protein, 750 pM RNA pool; temperature not stated; high values mean tight binding; sequences stand for … in GGGUAAAAGCGAGGUGAA…CGGGACAAGUAUUAUGGG

Row | Sequence | binding signal (log2 fold change)
1 | GGUUGUGGUGUUGGAGUCUAACACCGCGAC [gtspaired] | -0.149
2 | UUUUUUUUUUGAGAACGUAACGUUCUUCUA [tttttgagapaired] | -0.0355
3 | UUUUUUUUUUGAGAACGGGGCGUUCUUCUA [tttttgagapaired] | 0.455
4 | UUUUUUUUUUGAGAAGGAGUCCUUCUCCUA [tttttgagapaired] | 0.0912
5 | UUUUUUUUUUGAGACGGUUGCCGUCUCCAG [tttttgagapaired] | 0.456
6 | UUUUUUUUUUGAGAUGGGAACUAUCUCCUA [tttttgagapaired] | 0.467
7 | UUUUUUUUUUGAGAUGGAGGCUAUCUCCUA [tttttgagapaired] | 0.204
8 | GUGUGUGGUGUUGGUAUCUAACACCGCACG [gtspaired] | -0.722
9 | GUGGUGUGUGUUGGCUUCUAACACAUACCG [gtspaired] | -0.61
10 | UUUUUUUUUUGAGAGGGGCUCCCUCUCCUA [tttttgagapaired] | 0.539
11 | UUUUUUUUUUGAGAAGGACUCCUUCUCCUA [tttttgagapaired] | 0.123
12 | UUUUUUUUUUGAGAUGGACACCAUCUCCUG [tttttgagapaired] | 0.267
13 | UUUUUUUUUUGAGACUGGUACAGUCUCCUG [tttttgagapaired] | 0.543
14 | UUUUUUUUUUGAGACCGAUCCGGUCUCCGG [tttttgagapaired] | 0.43
15 | UUUUUUUUUUGAGAGCGACACGCUCUCCAG [tttttgagapaired] | 0.144
16 | GUGUGGUGUGUUGGCCUCUAACACAUCACA [gtspaired] | -0.0659
17 | UUUUUUUUUUGAGACUGAUACAGUCUCCUA [tttttgagapaired] | 0.388
18 | UUUUUUUUUUGAGAUGGAUGCCAUUUCCAG [tttttgagapaired] | 0.454
19 | UUUUUUUUUUGAGAUCGAAACGAUCUUCUA [tttttgagapaired] | -0.577
20 | UUUUUUUUUUGAGACGGGAUCCGUCUCCUA [tttttgagapaired] | 0.213
21 | UUUUUUUUUUGAGAUCGGAACGAUCUCCAG [tttttgagapaired] | -0.256
22 | UUUUUUUUUUGAGAUGGAUACUAUCUCCAG [tttttgagapaired] | 0.378

Row | Sequence | binding signal (log2 fold change)
23 | UUUUUUUUUUGAGACCGGAGCGGUCUCCGG [tttttgagapaired] | 0.541
24 | UUUUUUUUUUGAGAGCGUCACGCUCUCCUA [tttttgagapaired] | 0.177
25 | GUGUGUGGUGUUGGCGCCUAACACCGCACG [gtspaired] | -0.388
26 | UUUUUUUUUUGAGAUGGACUCCAUCUCCUG [tttttgagapaired] | 0.262
27 | GUGUGUUGUGUUGGUUCCUAACACAGCACA [gtspaired] | -0.644
28 | UUUUUUUUUUGAGACGGUGACCGUCUUCUG [tttttgagapaired] | 0.552
29 | GGUGUGUGUGUUGGCACCUAACACAUAUAC [gtspaired] | -0.446
30 | GGUGGUUGUGUUGGCAUCUAACACAAUCGC [gtspaired] | -0.466
31 | UUUUUUUUUUGAGACUGAUACAGUCUCCAG [tttttgagapaired] | 0.306
32 | UUUUUUUUUUGAGACUGUAACAGUUUUCUA [tttttgagapaired] | 0.143
33 | UUUUUUUUUUGAGAGCGGACCGCUCUCCUA [tttttgagapaired] | 0.55
34 | GUUGUGUGUGUUGGAGCCUAACACACGCAG [gtspaired] | -0.454
35 | UUUUUUUUUUGAGACGGCAACUGUCUCCAG [tttttgagapaired] | 0.972
36 | UUUUUUUUUUGAGAUGGAGACCAUCUCCGG [tttttgagapaired] | 0.246
37 | UUUUUUUUUUGAGAUGGUUUCCAUCUUCUG [tttttgagapaired] | 0.107
38 | GUUGUGUGUGUUGGAACCUAACACACGCGA [gtspaired] | -0.578
39 | UUUUUUUUUUGAGAUCGGAGCGAUCUCCUG [tttttgagapaired] | 0.66
40 | GUGUGUUGUGUUGGCCUCUAACACAACGCG [gtspaired] | -0.724
41 | GGUGGUUGUGUUGGUCCCUAACACAACUAC [gtspaired] | -0.552
42 | UUUUUUUUUUGAGAGCGGAUCGCUCUCCUA [tttttgagapaired] | -0.0456
43 | UUUUUUUUUUGAGAACGGGACGUUCUCCAG [tttttgagapaired] | 0.446
44 | UUUUUUUUUUGAGAGGGCCACCCUCUCCUG [tttttgagapaired] | 0.93

Row | Sequence | binding signal (log2 fold change)
45 | GUGGUUGGUGUUGGCGUCUAACACCGACCG [gtspaired] | -0.72
46 | UUUUUUUUUUGAGACUGAUCCAGUCUCCGG [tttttgagapaired] | 0.276
47 | GUGUUGUGUGUUGGCCCCUAACACACAGCA [gtspaired] | 0.0458
48 | UUUUUUUUUUGAGACCGGACCGGUCUCCUG [tttttgagapaired] | 0.683
49 | GUGGUGUGUGUUGGUCCCUAACACAUACCA [gtspaired] | -0.526
50 | GGUUGUGGUGUUGGAUUCUAACACCGCAGC [gtspaired] | -0.31
51 | UUUUUUUUUUGAGACCGGUCCGGUCUCCUG [tttttgagapaired] | 0.515
52 | GUGGUGUGUGUUGGCAUCUAACACAUACCA [gtspaired] | -0.48
53 | UUUUUUUUUUGAGAACGAAUCGUUCUCCUA [tttttgagapaired] | -0.554
54 | GGUGUGUGUGUUGGCCCCUAACACAUACAC [gtspaired] | 0.031
55 | UUUUUUUUUUGAGACGGUUUCCGUUUCCUA [tttttgagapaired] | 0.253
56 | GUUGUGUGUGUUGGCCUCUAACACACGCAA [gtspaired] | -1.18
57 | GGUGGUUGUGUUGGUCCCUAACACAGCCGC [gtspaired] | -0.23
58 | GUGUGUGGUGUUGGCUCCUAACACCAUACA [gtspaired] | -0.731
59 | GUGGUUGGUGUUGGACCCUAACACCAGCCG [gtspaired] | -0.429
60 | UUUUUUUUUUGAGAUGGCGACCAUCUUCUA [tttttgagapaired] | 0.222
61 | UUUUUUUUUUGAGACUGCGUCAGUUUCCGG [tttttgagapaired] | 0.883
62 | UUUUUUUUUUGAGACGGCGACCGUCUCCUA [tttttgagapaired] | 0.3
63 | GUGUGUUGUGUUGGCUCCUAACACAACGCG [gtspaired] | -0.401
64 | GUGUGUUGUGUUGGUGCCUAACACAGCACA [gtspaired] | -0.553
65 | GUUGGUGGUGUUGGCGUCUAACACCGCCAG [gtspaired] | -0.717
66 | UUUUUUUUUUGAGACGGCAGCCGUCUCCAG [tttttgagapaired] | 0.697
